Laboratory results: article PMC2854131 (PLoS ONE, 2010)

Key:
[1] = acidic conditions (pH<2.0 for H3H)
[2] = Figure 1, earlier compound; cited from earlier work

| Compound | stability under acidic conditions, in words [1] | water solubility, in words [2] |
| --- | --- | --- |
| NCCCCn1c(-c2ccccc2)c(F)c2ccc(C(=O)c3cc(CC(=O)NO)c(-c4cccc(N)c4)s3)cc21 [Inhibitor F3A, 2-(5-(1-(4-Aminobutyl)-3-fluoro-2-phenyl-1H-indole-6-carbonyl)-2-(3-aminophenyl)thiophen-3-yl)-N-hydroxyacetamide] | stable under acidic conditions |  |
| NCCCCn1c(-c2ccccc2)cc2ccc(C(=O)c3cc(CC(=O)NO)c(-c4ccccc4)s3)cc21 [APH, reference compound] |  | water insoluble |
| NCCCCn1c(-c2ccccc2)cc2ccc(C(=O)c3cc(CC(=O)NO)c(-c4cccc(O)c4)s3)cc21 [Inhibitor H3H] | chemical instability under acidic conditions |  |
| NCCCCn1c(-c2ccccc2)c(F)c2ccc(C(=O)c3cc(CC(=O)NO)c(-c4ccc(O)cc4)s3)cc21 [Inhibitor F4H, 2-(5-(1-(4-Aminobutyl)-3-fluoro-2-phenyl-1H-indole-6-carbonyl)-2-(4-hydroxyphenyl)thiophen-3-yl)-N-hydroxyacetamide] | stable under acidic conditions |  |
